Test results taken from patent US20260265780A1.

Target: CD8 (protein not named in Table 16)

B1: CD8 binder 46 (scFv) (scFv, V domains shown)
VH: QVQLVQSGAEVKKPGASVKVSCKASGYTFTSYYMHWVRQAPGQGLEWMGGFDPEDGETIYAQKFQGRVTMTRDTSTSTVYMELSSLRSEDTAVYYCARDQGWGMDVWGQGTTVTVSS
VL: [about 100 residues cut from this listing]
  Highest Response (nm): 0.491 nm
  Kd: 95.2 nM
  koff: 0.00821 s⁻¹
  kon: 86300 M⁻¹ s⁻¹
